# Source: patent publication US11207320B2, “Compositions and methods for cancer expressing PDE3A or SLFN12” (The Broad Institute, Inc., priority 2015, dated 2021)
# The source gives many values for each of these; only a part stands here.
# Test system: 766 cancer cell lines
# Assay: Large-scale cell-line viability measurements (766 cancer cell lines, 72 h, AUC)
# Format: cell-based, human
# Protocol: Cell lines were treated for 72 hours with concentrations ranging from 66.4 μM-2 nM in 2-fold step dilutions.
# To characterize cellular sensitivity to DNMDP further, 766 genomically characterized cancer cell lines were screened for DMNDP sensitivity at concentrations ranging from 66.4 μM to 2 nM in 2-fold dilution steps for 72 hours. From these cell lines, 22 cell lines were categorized as sensitive with a robust Z-score lower than −4, which represented multiple lineages including multiple melanoma cell lines, amongst others (Table 1).
# The sensitivity of […] cancer cell lines (CCLs) was measured drawn from 23 different lineages to DNMDP. Each cell line was plated in its preferred media in white opaque 1536-plates at a density of 500 cells/well. After incubating overnight, DNMDP was added by acoustic transfer at 16 concentrations ranging from 66.4 μM-2 nM in 2-fold steps in duplicate (Labcyte Echo 555, Labcyte Inc., Sunnyvale, Calif.). After 72 hours treatment, cellular ATP levels were measured as a surrogate for viability (CELLTITERGLO®, Promega Corporation, Madison, Wis.) according to manufacturer's protocols using a ViewLux Microplate Imager (PerkinElmer, Waltham, Mass.) and normalized to background (media-only) and vehicle (DMSO)-treated control wells.
# Concentration response curves were fit using nonlinear fits to 2- or 3-parameter sigmoid functions through all 16 concentrations with the low-concentration asymptote set to the DMSO-normalized value, and an optimal 8-point dose curve spanning the range of compound-sensitivity was identified. The area under the 8-point dose curve (AUC) was computed by numeric integration as a metric for sensitivity for further analysis. Similar sensitivity measurements have been obtained for a collection of 480 other compounds, enabling analyses that identify cell lines responding uniquely to DNMDP (see Broad Institute Cancer Therapeutics Response Portal, a dataset to identify comprehensively relationships between genetic and lineage features of human cancer cell lines and small-molecule sensitivities for complete list of compounds).
# [1] = cell line SNU738 (CENTRAL NERVOUS SYSTEM)
# [2] = cell line SNU878, LIVER, 72 hours
# [3] = cell line SNU886, LIVER, 72 hours
# [4] = cell line SNU899 (UPPER AERODIGESTIVE TRACT)
# [5] = cell line SNU1033 (LARGE INTESTINE)
# [6] = cell line SNU1040, LARGE INTESTINE, 72 hours
# [7] = cell line SNU1041 (UPPER AERODIGESTIVE TRACT)
# [8] = cell line SNU1066 (UPPER AERODIGESTIVE TRACT)
# [9] = cell line SNU1076 (UPPER AERODIGESTIVE TRACT)
# [10] = cell line SNU1077 (ENDOMETRIUM)
# [11] = cell line SNU1079, BILIARY TRACT, 72 hours
# [12] = cell line SNU1105 (CENTRAL NERVOUS SYSTEM)
# [13] = cell line SNU1196 (BILIARY TRACT)
# [14] = cell line SNUC2A, LARGE INTESTINE, 72 hours
# [15] = cell line SNUC4, LARGE INTESTINE, 72 hours
# [16] = cell line SNUC5 (LARGE INTESTINE)
# [17] = cell line SR786 (HAEMATOPOIETIC AND LYMPHOID TISSUE)
# [18] = cell line SUDHL4 (HAEMATOPOIETIC AND LYMPHOID TISSUE)
# [19] = cell line SUDHL5, HAEMATOPOIETIC AND LYMPHOID TISSUE, 72 hours
# [20] = cell line SUDHL6 (HAEMATOPOIETIC AND LYMPHOID TISSUE)
# [21] = cell line SUDHL8 (HAEMATOPOIETIC AND LYMPHOID TISSUE)
# [22] = cell line SUDHL10, HAEMATOPOIETIC AND LYMPHOID TISSUE, 72 hours
# [23] = cell line SUPHD1 (HAEMATOPOIETIC AND LYMPHOID TISSUE)
# [24] = cell line SUPT1, HAEMATOPOIETIC AND LYMPHOID TISSUE, 72 hours
# [25] = cell line SUPT11 (HAEMATOPOIETIC AND LYMPHOID TISSUE)
# [26] = cell line SW48 (LARGE INTESTINE)
# [27] = cell line SW403 (LARGE INTESTINE)
# [28] = cell line SW620 (LARGE INTESTINE)
# [29] = cell line SW1088 (CENTRAL NERVOUS SYSTEM)
# [30] = cell line SW1353, BONE, 72 hours
# [31] = cell line T84 (LARGE INTESTINE)
smiles,measurement,setting,value
"CCN(CC)c1ccc(C2=NNC(=O)CC2C)cc1[N+](=O)[O-] (centres unmarked) [DNMDP, 6-(4-(diethylamino)-3-nitrophenyl)-5-methyl-4,5-dihydropyridazin-3(2H)-one]",Robust Z-score,cell line SNU668 (STOMACH),0.3967
same,DNMDP AUC,cell line SNU719 (STOMACH),6.9544
same,Robust Z-score,cell line SNU719 (STOMACH),0.3356
same,DNMDP AUC,[1],6.9945
same,Robust Z-score,[1],0.3777
same,DNMDP AUC,cell line SNU840 (OVARY),6.8651
same,Robust Z-score,cell line SNU840 (OVARY),0.2419
same,DNMDP AUC,[2],7.2238
same,Robust Z-score,[2],0.6184
same,DNMDP AUC,[3],7.3032
same,Robust Z-score,[3],0.7017
same,DNMDP AUC,[4],6.662
same,Robust Z-score,[4],0.02871
same,DNMDP AUC,[5],6.6873
same,Robust Z-score,[5],0.05526
same,DNMDP AUC,[6],7.3288
same,Robust Z-score,[6],0.7286
same,DNMDP AUC,[7],6.6307
same,Robust Z-score,[7],−0.004146
same,DNMDP AUC,[8],6.5779
same,Robust Z-score,[8],−0.05957
same,DNMDP AUC,[9],6.7574
same,Robust Z-score,[9],0.1288
same,DNMDP AUC,[10],6.6342
same,Robust Z-score,[10],−0.0004723
same,DNMDP AUC,[11],7.2463
same,Robust Z-score,[11],0.642
same,DNMDP AUC,[12],6.8918
same,Robust Z-score,[12],0.2699
same,DNMDP AUC,[13],6.5947
same,Robust Z-score,[13],−0.04193
same,DNMDP AUC,[14],7.6165
same,Robust Z-score,[14],1.031
same,DNMDP AUC,[15],7.2927
same,Robust Z-score,[15],0.6907
same,DNMDP AUC,[16],6.939
same,Robust Z-score,[16],0.3195
same,DNMDP AUC,cell line SQ1 (LUNG),6.6945
same,Robust Z-score,cell line SQ1 (LUNG),0.06282
same,DNMDP AUC,[17],6.5751
same,Robust Z-score,[17],−0.06251
same,DNMDP AUC,cell line SU8686 (PANCREAS),6.8851
same,Robust Z-score,cell line SU8686 (PANCREAS),0.2629
same,DNMDP AUC,[18],7.0162
same,Robust Z-score,[18],0.4005
same,DNMDP AUC,[19],7.3508
same,Robust Z-score,[19],0.7517
same,DNMDP AUC,[20],6.887
same,Robust Z-score,[20],0.2649
same,DNMDP AUC,[21],6.8258
same,Robust Z-score,[21],0.2006
same,DNMDP AUC,[22],7.7977
same,Robust Z-score,[22],1.221
same,DNMDP AUC,[23],6.5802
same,Robust Z-score,[23],−0.05715
same,DNMDP AUC,[24],7.167
same,Robust Z-score,[24],0.5588
same,DNMDP AUC,[25],6.695
same,Robust Z-score,[25],0.06335
same,DNMDP AUC,[26],6.9505
same,Robust Z-score,[26],0.3315
same,DNMDP AUC,[27],6.8208
same,Robust Z-score,[27],0.1954
same,DNMDP AUC,[28],6.5658
same,Robust Z-score,[28],−0.07227
same,DNMDP AUC,[29],7.0786
same,Robust Z-score,[29],0.466
same,DNMDP AUC,cell line SW1271 (LUNG),7.0143
same,Robust Z-score,cell line SW1271 (LUNG),0.3985
same,DNMDP AUC,[30],7.1985
same,Robust Z-score,[30],0.5918
same,DNMDP AUC,cell line SW1573 (LUNG),6.8813
same,Robust Z-score,cell line SW1573 (LUNG),0.2589
same,DNMDP AUC,cell line SW1990 (PANCREAS),6.7019
same,Robust Z-score,cell line SW1990 (PANCREAS),0.07059
same,DNMDP AUC,cell line T24 (URINARY TRACT),6.8383
same,Robust Z-score,cell line T24 (URINARY TRACT),0.2138
same,DNMDP AUC,cell line T47D (BREAST),6.5764
same,Robust Z-score,cell line T47D (BREAST),−0.06114
same,DNMDP AUC,[31],6.8791
same,Robust Z-score,[31],0.2566
same,DNMDP AUC,cell line TCCPAN2 (PANCREAS),6.9184
same,Robust Z-score,cell line TCCPAN2 (PANCREAS),0.2978
